# Measurements published in publication PMC12040169 (PLOS Biology, 2025).
# The other results are listed elsewhere or left out.
# Test system: T1, C. trachomatis L2/434/Bu expressing GFP (CTL2-GFP)
# T1 construct: L2/434/Bu GFP intracellular growth in HeLa cells
# Parameters: species or system HeLa; C. trachomatis total inclusion area by high-content imaging, normalised to DMSO
# Settings: total inclusion area; 28.5 h, 10 µM; inhibitor
# Method in brief: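 High-content imaging followed the bulk GFP/resorufin measurement: fixed, Hoechst-stained cells were scored for GFP inclusions and host nuclei per well. Total inclusion area and count served as growth proxies, nuclei number as the viability proxy. MIC calculation matched the bulk assay.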
row,SMILES,% of control remaining
1,CC(=O)Nc1ccc(SC(C)c2nsc(NS(=O)(=O)c3ccc(-c4ccccc4)cc3)n2)cc1 (stereo not drawn) [CBK047508],72.8516
2,CSc1ccc(CN2CCN(S(=O)(=O)Cc3ccccc3)CC2)cc1 [CBK264301G],66.3617
3,CC(C)(C)c1cc2cc(NC(=O)C3CC3)ccc2[nH]1 [CBK019994],68.9151
4,O=C(Nc1cccc(Cl)c1)N[C@H]1C[C@H]2C(=O)NC[C@@H](CCC(=O)N3CCCC3)N2C1 [CBK289003],105.414
5,Cc1cc(NC(=O)c2ccc3c(c2)OCCO3)c2ccccc2n1 [CBK122739],93.5317
6,Cc1ccc(-c2nnc3sc(-c4cnccn4)nn23)cc1 [CBK268258],101.948
7,CN(C)C(=O)c1ccc(-c2ccc(COC3CCN(C(=O)c4cc5ccccc5o4)CC3)c(S(C)(=O)=O)c2)cc1 [CBK155965],64.9588
8,COc1ccccc1CNCCc1ccc(S(N)(=O)=O)cc1 [CBK269852C],99.6822
9,O=C(O)C(O)C(O)c1nc2ccccc2[nH]1 (stereo not drawn) [CBK260955],75.7086
10,O=C(NCC1CCCCC1)C1(Cc2ccc(-c3cccnc3)cc2)CCOCC1 [CBK285591],94.0155
11,CCc1nnc(NS(=O)(=O)c2ccc(NC(=O)COc3ccc(Cl)cc3Cl)cc2)s1 [CBK200050],40.2939
12,O=C(CCn1c(C(F)(F)F)cc2cccnc21)NC1CCCOC1 (stereo not drawn) [CBK284867],63.2376
13,CN(C)C(=O)Cn1nc(-c2cc3c(s2)CCC3)oc1=O [CBK284715],77.8182
14,O=C(CC1C(=O)NCCN1C(=S)Nc1ccccc1)Nc1ccc2c(c1)OCCO2 (stereo not drawn) [CBK267999],75.455
15,COc1ccc(-n2c(=O)[nH]c3ncc(-c4ccco4)nc32)c(C)c1 [CBK065019],85.2889
16,CN(c1ncccc1C#N)C1CCN(C(=O)OCc2ccccc2)CC1 [CBK023869C],99.7396
17,Cc1nc(S(=O)(=O)Cc2c(F)cccc2Cl)n(CC2CCCO2)c1C (stereo not drawn) [CBK304706],35.2537
18,CS(=O)(=O)N[C@H]1CO[C@H]2[C@@H]1OC[C@@H]2Nc1nccc(-c2cccs2)n1 [CBK289519],97.8351
19,CC(C)(C)c1cc(CCC(=O)N/N=C/c2ccco2)cc(C(C)(C)C)c1O [CBK261960],106.018
20,Cn1c(Cc2ccccc2)nnc1SCC(=O)Nc1ccc(N2CCOCC2)cc1 [CBK269750],91.431
21,COc1ccc(C(C)c2cc3c(cc2O)OCO3)c(F)c1 (stereo not drawn) [CBK200101],84.5047
22,Cc1nc(SCCO)c2c(=O)n(C)c(=O)n(CC(C)C)c2n1 [CBK306114],45.9468
23,O=c1nc2n(Cc3ccccc3)c3ccccc3cc-2c(=O)[nH]1 [CBK287958],96.7062
24,Cc1c(C(=O)O)sc2ncn(CCCOc3ccc(Cl)cc3)c(=O)c12 [CBK286695],71.7869
25,CCOC(=O)c1cccc(NS(=O)(=O)c2cccc3cccnc23)c1 [CBK034345],72.1504
26,O=C(O)C1Nc2c(C(=O)N3CCOCC3)cccc2C2C=CCC12 (stereo not drawn) [CBK275006],58.5701

row,SMILES,% of control remaining
1,COc1ccc(C(NC(=O)[C@H]2CCCN2C(=O)Cc2cccs2)c2ccccc2C)cn1 (stereo partly drawn) [CBK075053],129.248
2,O=C(CSc1ncn(-c2ccccc2)n1)Nc1c(Cl)cccc1Cl [CBK269683],69.3461
3,CCCC(=O)Nc1ccc(C(=O)N2CCN(CC)CC2)cc1 [CBK304218],65.119
4,CCC(Oc1ccc(C)cc1)C(=O)Nc1ccc(S(N)(=O)=O)cc1 (stereo not drawn) [CBK270036],99.1698
5,Cc1onc(-c2ccccc2)c1CNC(=O)c1cccc(C(F)(F)F)c1 [CBK144079],102.939
6,NC(CC(=O)O)c1ccc(F)c(Oc2ccccc2)c1 (stereo not drawn) [CBK286912],85.7137
7,CCn1c(CN2CCCC2c2nc(N(C)C)ncc2-c2ccc(F)cc2)nc2ccccc21 (stereo not drawn) [CBK285974],86.8996
8,CCc1nn(CC(=O)N2CCCCCC2)c(=O)c2cc3occc3n12 [CBK283677],97.6326
9,Cc1cccc(C)c1NC(=O)c1c(NC(=O)c2ccco2)sc2c1CCC(C)C2 (stereo not drawn) [CBK265550],90.7251
10,Cc1ccc(/C=N/N=C2/N=C(O)C(CC(=O)Nc3ccccc3C(F)(F)F)S2)o1 (stereo not drawn) [CBK263731],93.8547
11,O=C(NC(C(=O)O)C12CC3CC(CC(C3)C1)C2)c1ccc([N+](=O)[O-])cc1 (stereo not drawn) [CBK261405],99.809
12,COCCCNC(=O)C1CCCN(c2nc3c(-c4ccc(C)cc4)csc3c(=O)[nH]2)C1 (stereo not drawn) [CBK215548],118.056
13,O=C(Nc1cccc(-c2nc3ncccc3o2)c1)c1cccc(OCc2ccccc2)c1 [CBK263126],95.5092
14,Cc1cccnc1NC(=O)C(C)n1cc([N+](=O)[O-])cn1 (stereo not drawn) [CBK268918],75.4847
15,COc1ccn2c(CCCN(C)C3Cc4ccccc4C3)nc(-c3ccc4c(c3)OCO4)c2c1 [CBK036303],107.307
16,COc1ccc(CCN2CCCCC2Cn2cncn2)cc1 (stereo not drawn) [CBK305095],97.3993
17,COC(=O)c1ccc2oc(-c3cc(C(O)CNC(C)(C)C)ccc3OC(C)C)cc(=O)c2c1 (stereo not drawn) [CBK009944C],56.6454
18,O=C(NCC1COc2ccccc2O1)N1CCN(c2ccc(F)cc2)CC1 (stereo not drawn) [CBK156387],84.7019
19,O=C(c1ccc(F)cc1)[C@H]1CCCN(C(=O)c2ccco2)C1 [CBK284328],72.7561
20,NS(=O)(=O)c1ccc(CCNS(=O)(=O)c2ccccc2[N+](=O)[O-])cc1 [CBK264369],106.354
21,Cc1c(C)n(C)c2ccc(C(=O)NCCC(=O)N3CCOCC3)cc12 [CBK281669],82.4083
22,CC(C)Nc1cncc(Sc2cccc(N)c2)n1 [CBK091434],91.7879
23,O=C(C1CC1)N1CCC2(CC1)Nc1cccnc1-n1cccc12 [CBK284504],55.7549
24,CC1(C)CC(=O)C2=C(C1)c1c(ccc3ccccc13)NC2c1ccc(N2CCC(Cc3ccccc3)CC2)c([N+](=O)[O-])c1 (stereo not drawn) [CBK262944],109.901
25,CC1CN(Cc2c(C(C)C)[nH]c3ncccc23)CC(C)O1 (stereo not drawn) [CBK282900],102.981
26,CCOCc1nc2c(c(NCCn3cccn3)n1)CCN(C(C)=O)CC2 [CBK307707],80.2899

row,SMILES,% of control remaining
1,Brc1ccc(C2(c3nnc(C4CCCO4)o3)CCOCC2)cc1 (stereo not drawn) [CBK306258],73.9213
2,CCN(CC)S(=O)(=O)c1ccc(Nc2nc3ccc(Cl)cc3n3cnnc23)cc1 [CBK268259],110.22
3,COCc1nnc(S)n1-c1cccc(OC)c1 [CBK288424],87.9194
4,CC(C)CC1C(=O)NCCN1Cc1ccccc1 (stereo not drawn) [CBK005336],107.442
5,CCC1c2cccn2CCN1C(=O)c1cc(-c2ccccn2)n[nH]1 (stereo not drawn) [CBK283224],116.557
6,CCc1nc2ccc(C(=O)Nc3cccc(NS(C)(=O)=O)c3)cn2c1N(C)CCCc1ccccc1 [CBK146670],77.715
7,COc1ccc(NC(=O)c2ccc(N(C)Cc3ccccc3)c([N+](=O)[O-])c2)cc1 [CBK268094],77.4242
8,O=C(CCn1cncn1)N[C@H]1C2CCCCC2[C@@H]1c1ccccc1 (stereo partly drawn) [CBK282970],93.8964
9,Cc1cc(C2CCCN(C(=O)CC3OCCc4sccc43)C2)n[nH]1 (stereo not drawn) [CBK305241],83.2865
10,Cc1nc2nc(-c3ccc(Cl)s3)cn2nc1C [CBK284565],59.5932
11,COCCC(=O)NC(Cc1ccsc1)c1nc(C)c(C)s1 (stereo not drawn) [CBK284774],127.492
12,CN(C)CCN(C)c1nc(-c2ccc(C(=O)O)cc2)cn2ccnc12 [CBK037880],110.617
13,N#Cc1sc(NC(=O)c2cccc(Br)c2)nc1Cl [CBK017468],2.217
14,COc1ccc(Cn2nc3nnc(-c4ccccc4)c(-c4ccccc4)n3c2=O)cc1 [CBK286180],119.423
15,CC(=O)Nc1ccc(Nc2ccc([N+](=O)[O-])cc2[N+](=O)[O-])cc1 [CBK260886],91.3937
16,CC(C)(C)CC(=O)N1CCCC1c1n[nH]cc1-c1ccncc1 (stereo not drawn) [CBK283430],78.3309
17,O=C(c1ccno1)n1nccc1-c1cc(-c2ccccc2)no1 [CBK022074],93.5512
18,CC(=O)Nc1ccccc1-c1nc2ccccc2nc1OCC(=O)c1ccc(Cl)cc1 [CBK266269],122.803
19,Cc1nc2cc(OCc3nc(C(=O)N(CCO)CCO)co3)ccc2s1 [CBK307684],51.7663
20,CCCCCN1CCn2nc(CNc3cnccn3)cc2C1 [CBK306713],91.9545
21,COc1ccc(CN2CCN(C(=O)c3ccccc3F)CC2)c(OC)c1 [CBK033601],102.794
22,CC(=O)Nc1ccc(C(=O)NCc2ccc(OCC(F)(F)F)cc2)cc1 [CBK305732],97.5336
23,Cc1cc(C)c2nc(NC(=O)c3ccc(=O)n(CC(=O)N(C)c4ccccc4)c3)sc2c1 [CBK286025],86.2323
24,CC(C)C(=O)N1CCC(n2c(=O)oc3ccc(Cl)cc32)CC1 [CBK284339],61.9891
25,Cc1cc2cc(C(=O)NCC3(N(C)C)CCN(C)CC3)ccc2o1 [CBK282623],72.875
26,Cc1ccc(CCP(=O)(O)CN2CCOCC2)cn1 [CBK022176],110.556
